# Test results from publication PMC3723532.
# Sequences of proteins named here, by UniProt entry; tags and fusion partners are left off.
# UniProt Q8LBM2: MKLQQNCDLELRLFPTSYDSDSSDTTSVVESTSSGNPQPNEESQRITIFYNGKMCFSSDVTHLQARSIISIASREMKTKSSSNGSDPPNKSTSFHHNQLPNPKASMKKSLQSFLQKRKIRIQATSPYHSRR
# UniProt O23487: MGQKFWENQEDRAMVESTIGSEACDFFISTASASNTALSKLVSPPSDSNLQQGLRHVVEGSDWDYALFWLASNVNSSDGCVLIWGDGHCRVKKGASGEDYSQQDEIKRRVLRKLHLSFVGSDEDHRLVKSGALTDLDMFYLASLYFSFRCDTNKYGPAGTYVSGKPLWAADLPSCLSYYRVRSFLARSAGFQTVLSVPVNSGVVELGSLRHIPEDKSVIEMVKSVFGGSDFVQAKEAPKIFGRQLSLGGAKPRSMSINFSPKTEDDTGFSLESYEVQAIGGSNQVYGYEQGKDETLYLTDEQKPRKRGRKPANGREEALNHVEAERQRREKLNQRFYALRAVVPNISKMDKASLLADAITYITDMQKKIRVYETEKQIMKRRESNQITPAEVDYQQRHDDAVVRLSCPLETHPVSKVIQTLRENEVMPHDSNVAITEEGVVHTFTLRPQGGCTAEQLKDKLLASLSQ
# UniProt Q9ZPY8: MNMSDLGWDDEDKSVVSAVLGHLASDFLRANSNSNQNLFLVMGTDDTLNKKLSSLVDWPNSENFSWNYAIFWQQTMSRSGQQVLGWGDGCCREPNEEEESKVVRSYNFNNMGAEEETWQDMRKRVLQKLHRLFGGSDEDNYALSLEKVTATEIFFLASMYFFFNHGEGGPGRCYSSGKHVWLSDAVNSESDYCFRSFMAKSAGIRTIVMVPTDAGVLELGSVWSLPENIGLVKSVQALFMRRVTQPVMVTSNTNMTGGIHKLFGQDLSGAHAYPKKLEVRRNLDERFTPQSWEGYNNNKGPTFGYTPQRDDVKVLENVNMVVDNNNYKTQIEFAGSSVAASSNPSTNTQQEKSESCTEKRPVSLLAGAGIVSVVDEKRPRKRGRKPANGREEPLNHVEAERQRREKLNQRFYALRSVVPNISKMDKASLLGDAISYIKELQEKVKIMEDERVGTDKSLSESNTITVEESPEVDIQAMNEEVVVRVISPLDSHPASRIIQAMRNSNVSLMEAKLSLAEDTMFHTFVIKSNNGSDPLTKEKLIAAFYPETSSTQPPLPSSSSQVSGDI
# UniProt Q9LNJ5: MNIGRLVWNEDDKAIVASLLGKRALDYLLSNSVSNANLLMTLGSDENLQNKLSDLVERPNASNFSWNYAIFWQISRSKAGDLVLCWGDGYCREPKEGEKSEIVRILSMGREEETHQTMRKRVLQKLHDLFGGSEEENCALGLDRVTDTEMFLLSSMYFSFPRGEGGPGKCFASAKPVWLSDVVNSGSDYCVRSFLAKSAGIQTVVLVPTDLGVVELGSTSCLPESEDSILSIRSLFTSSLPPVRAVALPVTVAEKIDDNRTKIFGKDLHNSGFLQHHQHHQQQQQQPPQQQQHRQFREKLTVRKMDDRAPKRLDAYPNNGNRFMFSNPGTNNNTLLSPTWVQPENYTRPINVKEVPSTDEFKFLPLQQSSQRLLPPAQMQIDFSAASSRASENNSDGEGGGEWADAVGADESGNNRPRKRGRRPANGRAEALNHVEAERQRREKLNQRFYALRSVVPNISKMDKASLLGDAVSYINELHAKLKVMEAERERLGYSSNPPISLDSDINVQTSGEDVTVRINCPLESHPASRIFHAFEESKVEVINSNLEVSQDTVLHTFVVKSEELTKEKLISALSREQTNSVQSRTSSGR
# These are yes or no findings as the source states them, for the method shown. Some results given as binding are weak or reduced against the parent protein; the word gives no strength.
# Experiments:
# Test in all cases: two-hybrid; LexA BD fusions (pLexA) and B42 AD fusions (pB42AD) in yeast EGY48; blue colour on 2% Gal/1% raffinose/SD/-Ura/-His/-Trp/-Leu/X-β-Gal medium; images after 3 days at 30°C
# [1] = target: T1, EGL3 (Arabidopsis thaliana) (UniProt Q9CAD0)
# T1 sequence: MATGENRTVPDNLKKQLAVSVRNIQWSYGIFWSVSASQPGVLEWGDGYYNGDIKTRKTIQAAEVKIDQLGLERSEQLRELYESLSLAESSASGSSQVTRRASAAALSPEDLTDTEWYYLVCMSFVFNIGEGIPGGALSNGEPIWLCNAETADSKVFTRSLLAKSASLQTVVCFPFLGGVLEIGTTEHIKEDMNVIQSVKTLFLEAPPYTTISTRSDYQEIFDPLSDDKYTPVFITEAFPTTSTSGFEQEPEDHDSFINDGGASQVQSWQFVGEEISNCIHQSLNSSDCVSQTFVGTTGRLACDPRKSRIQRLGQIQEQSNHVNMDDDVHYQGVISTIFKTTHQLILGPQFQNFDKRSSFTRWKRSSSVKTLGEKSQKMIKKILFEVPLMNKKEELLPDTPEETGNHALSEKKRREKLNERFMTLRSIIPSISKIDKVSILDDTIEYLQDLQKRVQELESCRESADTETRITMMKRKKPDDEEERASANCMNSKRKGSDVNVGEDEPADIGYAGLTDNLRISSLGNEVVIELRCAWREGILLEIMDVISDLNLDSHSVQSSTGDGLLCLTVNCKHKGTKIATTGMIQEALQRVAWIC
# [2] = target: T2, JAZ11 (Arabidopsis thaliana) (UniProt Q9M246)
# T2 sequence: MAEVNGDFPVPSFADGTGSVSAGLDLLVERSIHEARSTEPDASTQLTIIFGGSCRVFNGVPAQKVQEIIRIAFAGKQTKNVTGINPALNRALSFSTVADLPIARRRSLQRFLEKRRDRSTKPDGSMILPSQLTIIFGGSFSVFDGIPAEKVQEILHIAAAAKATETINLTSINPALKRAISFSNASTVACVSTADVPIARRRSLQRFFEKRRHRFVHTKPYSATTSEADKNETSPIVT
# [3] = target: JAZ8 (Arabidopsis thaliana) (UniProt Q8LBM2)
Substance,binding [1],binding [2],binding [3]
bHLH3 (from UniProt O23487 1-467),no binding,binds,–
bHLH17 (from UniProt Q9ZPY8 1-566),no binding,binds,binds
bHLH13 (from UniProt Q9LNJ5 1-590),no binding,binds,binds
